According to PubChem BioAssay AID485364 (National Center for Advancing Translational Sciences (NCATS), 2010):
Out of some 360,000 compounds screened, about 11,000 (3.1%) were called active. Inconclusive results, whose numbers are uncertain, are shown with a selection of clear calls. Calls follow the shape of the dose curve; as a rule, active = well fitted inhibition curve with a large enough effect; inconclusive = small, poorly fitted or top-dose-only effect; inactive = no such curve, though single readings can be large or run the other way. Potencies of inconclusive entries are left out as doubtful fits.

biological target: Schistosoma mansoni thioredoxin glutathione reductase (TGR) (UniProt Q962Y6); assay: qHTS Assay for the Inhibitors of Schistosoma Mansoni Peroxiredoxins; conditions: purified TGR, DTNB reduction, TNB absorbance 405 nm; activity change, negative = inhibition: at 114 µM (top of the series) unless noted; also: nearly all actives have a fitted effect of over 60% in size
Method in brief: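 TGR 20 nM + NADPH 100 uM (dispensed conc.), cpd preinc 15 min RT; start with NADPH (500 uM addition) then DTNB (15 mM addition). Kinetic TNB absorbance, 405 nm filter. Four-parameter Hill fit across titration.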
% is scaled to controls: 0 for no effect and ±100 for the full control effect; potency is read from the fitted curve at half-maximal effect; tags tell the direction and shape of the fitted curve.

SMILES | Potency | activity change, negative = inhibition
O=S(=O)(c1ccc(NC(=S)NCCc2ccccc2)cc1)N1CCOCC1 | inconclusive [inhibitor, full curve] | –
Cc1nc2sccn2c(=O)c1Cl | – | inconclusive: -40% [inhibitor]
O=C(CSCc1ccc(Cl)cc1)N/N=C/c1ccco1 | inconclusive [inhibitor, full curve] | –
COc1cc(O)c(CCO)c2c1C(=O)C[C@@H](C)O2 | inactive | –
COc1ccc(Cl)cc1NC(=S)NCc1ccc(S(N)(=O)=O)cc1 | inconclusive [inhibitor, partial curve, poor fit] | –
Cc1nc2ccccn2c1C(=O)NCCCN1CCOCC1 | inconclusive [inhibitor, partial curve] | –
CC1CCN(CCCCOc2ccc(Br)cc2)CC1 | inactive | –
Cc1[nH][nH]c(=O)c1C(c1ccc(-c2cccc(Cl)c2)o1)c1c(C)[nH][nH]c1=O | active: 7.08 µM | –
CCc1ccccc1NC1Nc2cc(C)nn2S1 (stereo unspecified) | inconclusive [inhibitor, partial curve] | –
Cc1cc2c(c(=O)n1Cc1ccco1)C(c1cccnc1)C(C#N)=C(N)O2 (stereo unspecified) | inconclusive [inhibitor, partial curve] | –
CCNC(=O)O/N=C1\CCCCC1c1ccc([N+](=O)[O-])cc1[N+](=O)[O-] (stereo unspecified) | active: 12.6 µM | –
Cc1nn(C)cc1C(=O)Nc1ccc2c(c1)OCCO2 | inactive | –
Cc1ccc(OCC(O)CN2CCc3ccccc3C2)c(C)c1 (stereo unspecified) | inconclusive [inhibitor, single point] | –
C=CC(C)N1C(=O)S/C(=C\c2ccc(N3CCOCC3)cc2C)C1=O (stereo unspecified) | inactive | –
CCOc1ccc2nc(SCC(=O)NNC(=O)c3ccco3)c(C)cc2c1 | inconclusive [inhibitor, partial curve] | –
C=CCn1c(SCC(=O)c2cccs2)nnc1-c1cccc(OC)c1 | inconclusive [inhibitor, partial curve] | –
COC(=O)C(=Cc1ccccc1[N+](=O)[O-])C(=O)OC | active: 7.08 µM | –
CCOc1ccc(-n2c(C)c(C(C)=O)c3cc(OCC(N)=O)ccc32)cc1 | inactive | –
CC(=O)N1CCc2cc(S(=O)(=O)CCC(=O)NCc3ccc(C)o3)ccc21 | active: 11.2 µM | –
CCOC(=O)c1c(NC(C)=O)sc2c(OC)c(Br)ccc12 | inconclusive [inhibitor, partial curve, poor fit] | –
C=C(C)CSc1nc2ccccc2[nH]1 | inactive | –
COC(=O)C1=C(c2cccc(NC(C)=O)c2)C[C@@H]2CC[C@H]1N2C | inconclusive [inhibitor, partial curve] | –
Cc1ccc(OCc2nc(-c3ccccn3)no2)cc1 | inactive | –

SMILES | Potency | activity change, negative = inhibition
CC(C)Oc1ccc(C(=O)Nc2ccc(N3CCCC3)cc2)cc1 | inconclusive [inhibitor, partial curve] | –
CCOc1ccccc1CN1CCNC(=O)C1CC(=O)NCCC1=CCCCC1 (stereo unspecified) | inconclusive [inhibitor, full curve, poor fit] | –
Cc1ccc(C(c2c(O)cc(C)n(Cc3ccco3)c2=O)N2CCC(C)CC2)cc1 (stereo unspecified) | active: 10 µM | –
Cc1ccc(SCC(=O)Nc2ccc3oc(-c4cccc(Cl)c4)nc3c2)cc1 | inconclusive [inhibitor, single point] | –
Cc1cc(C)c2cc(CN(Cc3nnnn3Cc3ccc(F)cc3)C3CCCC3)c(=O)[nH]c2c1 | inconclusive [inhibitor, partial curve] | –
COCCN(CC1CCCN(C2Cc3ccccc3C2)C1)C(=O)CCC(C)=O (stereo unspecified) | inconclusive [inhibitor, partial curve] | –
CC(C)(C)n1nnnc1C(c1cccs1)N(Cc1cccnc1)Cc1ccco1 (stereo unspecified) | inactive | –
O=C1NC(=S)/C(=C\c2ccc(-c3ccccc3Cl)o2)S1 | inconclusive [inhibitor, full curve, poor fit] | –
Cc1ccc(NC(=O)CSc2nnc(-c3cnccn3)n2Cc2ccco2)cc1C | inconclusive [inhibitor, partial curve] | –
COc1ccc(OC)c(S(=O)(=O)NCC(c2cccs2)S(=O)(=O)c2ccc(F)cc2)c1 (stereo unspecified) | active: 0.316 µM | –
COCCNC(=O)c1oc2ccc3c(c2c1C)C(O)CC(C)(C)O3 (stereo unspecified) | inconclusive [inhibitor, single point] | –
O=C(NCCSCc1ccco1)c1ccc(=O)[nH]c1 | active: 35.5 µM | –
CN(CC(=O)NCC(c1ccco1)N1CCCCC1)S(=O)(=O)c1ccc(Cl)cc1 (stereo unspecified) | inconclusive [inhibitor, partial curve, poor fit] | –
CN(C)/C=C/C1=C([N+](=O)[O-])C(c2cccc([N+](=O)[O-])c2)NC(=O)N1 (stereo unspecified) | inconclusive [inhibitor, partial curve] | –
Cc1c(S(=O)(=O)c2ccccn2)c(N)n(Cc2ccccc2)c1C | active: 2 µM | –
N#Cc1ccccc1NC(=S)NC(=O)C1CCC1 | inconclusive [inhibitor, partial curve] | –
O=CN(Cc1ccco1)C1(C(=O)NC2CCCCC2)CCCCC1 | inconclusive [inhibitor, single point] | –
CN(C)CCCN(Cc1cc2cc3c(cc2[nH]c1=O)OCCO3)C(=O)NC1CCCCC1 | inconclusive [inhibitor, partial curve] | –
O=C(OCC#CCNc1nnc(-c2cccc3ccccc23)o1)c1cccs1 | active: 17.8 µM | –
CN1CCC(=NNc2ccc(S(=O)(=O)N3CCOCC3)cc2[N+](=O)[O-])CC1 | inconclusive [inhibitor, partial curve] | –
Cc1ccc(CN2CCCn3nc(C(=O)NCCc4ccccc4Cl)cc3C2=O)cc1 | inconclusive [inhibitor, single point] | –
O=C(NC(=S)Nc1ccccc1F)C1CCCCC1 | inconclusive [inhibitor, partial curve] | –
COc1ccccc1CN1CCNC(=O)C1CC(=O)NC1CCCCCC1 (stereo unspecified) | inconclusive [inhibitor, partial curve] | –
